Data from PubChem BioAssay AID1508624 (National Center for Advancing Translational Sciences (NCATS), 2021).
The whole screen tested about 48,000 compounds, of which about 120 (0.25%) were called active. Roughly 4% stayed inconclusive and do not appear here. Calls follow the shape of the dose curve; as a rule, active = well fitted activation curve with a large enough effect; inconclusive = small, poorly fitted or top-dose-only effect, or another doubt; inactive = no such curve, though single readings can be large or run the other way. The list shows a part of the results.

experiment: Primary qHTS for Identification of Small Molecule Activators of Huntingtin-Antisense Promoter Activity; settings: HEK293 HTT-AS promoter firefly luciferase reporter, 24 h; series mostly up to 57.5 µM; activity change, positive = activation: at the top concentration; also: nearly all actives have a fitted effect of over 55% in size
How it was run: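 Firefly luciferase signal from promoter-reporter HEK293 cells was scaled between vehicle (0%) and zero RLU (-100%). Compounds were tested at final concentrations of up to 57.5 uM over 24 h at 37 degrees C. PTC124 at 50 uM final served as control inhibitor.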

SMILES	activity change, positive = activation
O=C(Nc1cccc(Cl)c1)Nc1ncc(CCNc2ncnc3ccsc23)s1	inactive: -25.6%
CCOC(=O)c1cc(-c2ccccc2)n(-c2cccc(C(=O)N(CC)c3ccccc3)c2)c1C	inactive: -28.5%
Cc1c2cnn(-c3ccccc3)c(=O)c2c(C)n1C(C)C(=O)Nc1ccc(Br)cc1F (stereo unspecified)	inactive: 18.4%
CC(C)c1ccc2oc(-c3cccc(NC(=O)c4ccc5c(c4)OCCO5)c3)nc2c1	inactive: 25%
Cc1ccc(-n2c(SCC(=O)Nc3cccc(F)c3)nc3c(oc4ccccc43)c2=O)cc1C	inactive: -20.6%
COc1ccc(N2CCN(C(=O)NCc3noc4ccccc34)CC2)cc1	inactive: -5.84%
Cc1cc(C)cc(-n2ccn3c(CC(C)(C)CC(=O)O)nnc3c2=O)c1	inactive: -16.4%
Cc1ccc2oc3c(c(=O)c2c1)C(c1cccc(O)c1)N(Cc1ccccc1Cl)C3=O (stereo unspecified)	inactive: -34.5%
COc1cccc(NC(=O)C2CCCN2S(=O)(=O)c2ccc3c(c2)C(C)(C)C(=O)N3C)c1 (stereo unspecified)	inactive: -24.2%
O=C(Cc1cccs1)NC1CC(=O)N(c2ccc(Cl)cc2)C1 (stereo unspecified)	inactive: -5.86%
CCC1=C[C@@H]2CN(C1)Cc1c([nH]c3ccccc13)[C@@](C(=O)OC)(c1cc3c(cc1OC)N(C)[C@@H]1[C@@](O)(C(=O)OC)[C@H](OC(C)=O)[C@]4(CC)C=CCN5CC[C@]31[C@@H]54)C2	inactive: -32.5%
CC(C)Sc1ncc(Cl)c(C(=O)N(Cc2ccc(F)cc2)C2CCS(=O)(=O)C2)n1 (stereo unspecified)	inactive: 6.55%
Cc1ccc(-c2nn3c(-c4ccccc4)nnc3c3ccccc23)cc1	inactive: -12.4%
Cc1cccc(C(=O)OCc2cc(=O)n3nc(C4CCCCC4)sc3n2)c1	inactive: 2.6%
COc1ccc(N2Cc3cccc(C(=O)Nc4ccc(C)c(C)c4)c3C2=O)cc1	inactive: -2.78%
O=C(NCCC1=CCCCC1)c1ccc2c(c1)N(Cc1ccccc1F)C(=O)c1ccccc1S2(=O)=O	inactive: -7.47%
CCc1cccc(N2C(=O)CS(=O)(=O)C23C(=O)N(Cc2ccc(F)cc2)c2ccc(C)cc23)c1 (stereo unspecified)	inactive: -19.8%
CC1=C(C(=O)Nc2ccc(C)cc2)C(c2ccc(Cl)cc2)n2nnnc2N1 (stereo unspecified)	inactive: -9.36%
Cc1ccc(NC(=O)CN2C(=O)C(C)(C)c3ccccc32)cc1	inactive: -22.4%
CCOc1ccc(N2CC(NC(=O)Cc3ccccc3)CC2=O)cc1 (stereo unspecified)	inactive: -1.56%
CCOC(=O)c1c(NC(=O)COc2cccc(C(F)(F)F)c2)sc2c1CCCCC2	inactive: 1.65% [at 11.5 µM, percent change from vehicle, -100% = no light]
O=C(CSc1ncc(CO)n1Cc1ccccc1)Nc1ccc(C(F)(F)F)cc1	inactive: -45.2%
COc1cccc(C2c3c(-c4ccccc4O)n[nH]c3C(=O)N2CCc2ccc(OC)c(OC)c2)c1 (stereo unspecified)	inactive: -25.6%

SMILES	activity change, positive = activation
CC(C)COc1ccc(C(=O)N2CCN(CCc3ccccn3)CC2)cc1	inactive: -7.51%
O=C(Nc1nnc(S(=O)(=O)N2CCc3ccccc32)s1)c1ccccc1	inactive: -24.8%
CCOc1nc(-c2ccc(C)cc2)ccc1-c1noc(-c2ccccc2F)n1	inactive: -12.7%
CCc1ccc(-c2nc(-c3cc4ccccc4oc3=O)sc2C)cc1	inactive: -20.6%
COc1cc(NC(=O)c2cnc3c(-c4ccc(F)cc4)c(C)nn3c2C)cc(OC)c1	inactive: -29.6%
Cc1ccc(Sc2c(C(=O)NCc3ccccc3C)[nH]c3ccccc23)cc1	inactive: 6.96%
Nc1ncnc2c1c(-c1cccc(OCc3ccccc3)c1)cn2C1CC(CN2CCCC2)C1 (stereo unspecified)	inactive: -11.9%
Cc1ccc(-c2nc3ccc(Cl)cn3c2Nc2ccc3c(c2)OCCO3)s1	inactive: 28.9%
CCN(CC)S(=O)(=O)c1ccc2oc(C(=O)Nc3ccc(Br)cc3F)c(C)c2c1	inactive: 2.93%
COc1ccc(CNC(=O)CN2C(=O)CCCc3ccccc32)cc1	inactive: 4.15%
COc1ccc(CCNC(=O)CCc2c(C)c3cc4c(C)c(C)oc4cc3oc2=O)cc1	inactive: 0.0312%
COc1ccc(NC(=O)CC(C)n2nc(C)cc2C)cc1Cl (stereo unspecified)	inactive: -7.64%
CCOc1ccc(CCNC(=O)Cn2ncn3c(cc4ccccc43)c2=O)cc1OCC	inactive: 0.473%
CCn1c(C(=O)Nc2cc(Cl)ccc2C)cc2sc(Cl)cc21	inactive: -15.9%
CCCOc1ccc(CN(C(=O)c2nc(SC(C)C)ncc2Cl)C2CCS(=O)(=O)C2)cc1 (stereo unspecified)	inactive: -10.8%
CCOc1ccc(/C=C/c2nc(C#N)c(Nc3ccc(OC)cc3)o2)cc1	inactive: 1.33%
N#Cc1ccccc1Cn1c(=O)n(Cc2ccc(C(=O)NC3CCN(Cc4ccccc4)CC3)cc2)c(=O)c2ccccc21	inactive: -16.6%
Fc1ccc(-c2ccc(CNCCSc3nnnn3-c3ccccc3)o2)cc1Cl	inactive: -0.691%
O=C(Nc1c(C(=O)Nc2cccc(F)c2)oc2ccccc12)c1cc2ccccc2o1	inactive: 15.9%
COc1cc2[nH]c(=O)n(CCCCCC(=O)NCCc3ccccc3)c(=O)c2cc1OC	inactive: -2.62%
CCOC(=O)c1cccc(NC(=O)C2CCCN(c3nnc(C)c4c(C)n(-c5ccccc5)nc34)C2)c1 (stereo unspecified)	inactive: -4.85%
O=C(Nc1cc(Cl)cc(Cl)c1)c1cc(S(=O)(=O)N2CCc3ccccc3C2)ccc1F	inactive: -21.6%
COc1ccc(OC)c(C2C(C(=O)Nc3ccccc3OC)=C(C)Nc3c(C(=O)Nc4ccc(F)cc4)cnn32)c1 (stereo unspecified)	inactive: 0.135%
